{"source": "PubChem BioAssay AID720709", "about": "(National Center for Advancing Translational Sciences (NCATS), 2013)", "note": "Hit rate of the full screen: of about 360,000 compounds, about 520 (0.14%) were called active. The shares of active, inactive and inconclusive entries below differ from those in the screen. Calls follow the shape of the dose curve; as a rule, active = well fitted inhibition curve with a large enough effect; inconclusive = small, poorly fitted or top-dose-only effect; inactive = no such curve, though single readings can be large or run the other way. No potency is given beside an inconclusive call; the fits are too rough. Potency is read from the fitted curve at half-maximal effect; tags tell the direction and shape of the fitted curve."}
{"target": "Rap guanine nucleotide exchange factor 3 (Homo sapiens) (UniProt O95398)", "sequence (O95398 whole entry, looked up)": "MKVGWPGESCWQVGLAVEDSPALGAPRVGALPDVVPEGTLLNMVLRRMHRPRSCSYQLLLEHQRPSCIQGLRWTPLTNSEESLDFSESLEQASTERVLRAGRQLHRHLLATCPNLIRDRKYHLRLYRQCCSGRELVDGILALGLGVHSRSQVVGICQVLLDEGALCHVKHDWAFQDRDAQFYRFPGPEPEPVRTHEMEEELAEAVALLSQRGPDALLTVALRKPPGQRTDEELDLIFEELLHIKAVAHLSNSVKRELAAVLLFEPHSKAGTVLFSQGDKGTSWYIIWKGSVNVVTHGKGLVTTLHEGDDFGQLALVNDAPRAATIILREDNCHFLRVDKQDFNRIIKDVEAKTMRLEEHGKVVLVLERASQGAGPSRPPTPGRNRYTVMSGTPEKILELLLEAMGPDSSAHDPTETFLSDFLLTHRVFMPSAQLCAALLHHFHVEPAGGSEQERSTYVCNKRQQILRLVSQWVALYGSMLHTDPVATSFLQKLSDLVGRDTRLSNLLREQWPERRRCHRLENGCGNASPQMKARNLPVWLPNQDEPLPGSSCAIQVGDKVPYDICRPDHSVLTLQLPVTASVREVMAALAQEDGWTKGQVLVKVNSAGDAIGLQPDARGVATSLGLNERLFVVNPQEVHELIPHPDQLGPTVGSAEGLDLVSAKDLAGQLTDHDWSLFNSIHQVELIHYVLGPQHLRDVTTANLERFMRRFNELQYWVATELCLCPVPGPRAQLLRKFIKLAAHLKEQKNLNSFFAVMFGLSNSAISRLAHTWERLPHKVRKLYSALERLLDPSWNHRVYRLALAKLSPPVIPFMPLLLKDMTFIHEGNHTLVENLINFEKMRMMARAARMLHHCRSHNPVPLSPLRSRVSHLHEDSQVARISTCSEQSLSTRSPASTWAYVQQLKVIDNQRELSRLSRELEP", "assay": "qHTS for Antagonist of cAMP-regulated guanine nucleotide exchange factor 3 (EPAC1): primary screen; also: nearly all actives have a fitted effect of over 50% in size;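 as to activity change, negative = inhibition: plate controls were vehicle for no effect and positive control for full effect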", "settings": "EPAC1 GEF assay, Rap1b-BODIPY-GDP exchange fluorescence; activity change, negative = inhibition: at 115 µM (top of the series)"}
{"smiles": "COCCN1CCN(c2cc(-c3ccccc3)nc3cc(-c4cccc(F)c4)nn23)CC1", "Potency": "inconclusive [inhibitor, partial curve]"}
{"smiles": "Clc1cccc2sc(N3CCCC3)nc12", "Potency": "inconclusive [inhibitor, single point]"}
{"smiles": "O=C(Nc1cc(C(F)(F)F)ccc1N1CCOCC1)c1cnccn1", "Potency": "inconclusive [inhibitor, partial curve]"}
{"smiles": "N#C/C(=C\\c1ccc[nH]1)C(=O)Nc1ccccc1F", "Potency": "inactive"}
{"smiles": "O=c1cc(CN2CCN(S(=O)(=O)c3ccc4c(c3)OCCO4)CC2)c2ccc(O)cc2o1", "Potency": "inconclusive [inhibitor, partial curve]"}
{"smiles": "O=C(CN1CCN(c2ccccn2)CC1)Nc1ccc([N+](=O)[O-])cc1C(=O)Nc1ccccc1F", "activity change, negative = inhibition": "inconclusive: -19.6% [inhibitor]"}
{"smiles": "C=CCN=c1scc(-c2ccco2)n1/N=C/c1ccc(O)c(O)c1O", "Potency": "active: 56.2 µM"}
{"smiles": "Cc1ccc(C(=O)Nc2nnc(S(=O)(=O)N3CCOCC3)s2)cc1", "Potency": "inconclusive [inhibitor, single point]"}
{"smiles": "Cc1cc(C(=O)N/N=C/c2ccc(O)c([N+](=O)[O-])c2)c(C)n1-c1ccc(F)cc1", "Potency": "inconclusive [inhibitor, single point]"}
{"smiles": "c1ccc(-c2cn3c(n2)CCc2ccc4cccnc4c2-3)cc1", "Potency": "inconclusive [inhibitor, partial curve, poor fit]"}
{"smiles": "Cc1ccc(C(=O)OC(C)C(=O)c2cc(C)c(C)cc2C)o1", "note": "(stereo not drawn)", "Potency": "inactive"}
{"smiles": "CC(C)(C)c1ccc(-c2cc(-c3ccccc3O)[nH]n2)cc1", "Potency": "inconclusive [inhibitor, single point]"}
{"smiles": "COc1ccc(OCC(=O)Nc2nc3c(s2)CCCC3)cc1", "Potency": "inactive"}
{"smiles": "CCOC(=O)C1(Cc2ccccc2)CCCN(C(=O)C=C(C)C)C1", "note": "(stereo not drawn)", "Potency": "inactive"}
{"smiles": "O=C(C=Cc1ccccc1Cl)c1ccccc1", "Potency": "inconclusive [inhibitor, full curve]"}
{"smiles": "O=C(NC1=NCCS1)c1ccc(-c2ccc(Cl)cc2)o1", "Potency": "inactive"}
{"smiles": "O=c1cc(CN2CCN(Cc3ccccc3)CC2)c2ccc(O)c(O)c2o1", "Potency": "inconclusive [inhibitor, partial curve]"}
{"smiles": "C=CS(=O)(=O)c1sc(Cl)c(N2CCOCC2)c1[N+](=O)[O-]", "Potency": "inconclusive [inhibitor, full curve, poor fit]"}
{"smiles": "Cc1cnc(C(=O)NCc2ccc(Cl)cc2Cl)cn1", "Potency": "inconclusive [inhibitor, single point]"}
{"smiles": "COc1ccccc1-c1cc(C(F)(F)F)nc(S(=O)(=O)CCCC(=O)N2CCCCC2C)n1", "note": "(stereo not drawn)", "Potency": "inconclusive [inhibitor, single point]"}
{"smiles": "COC(=O)c1cc(-c2c(C)oc3cc(OC(C)C)ccc3c2=O)c(C)o1", "Potency": "inactive"}
{"smiles": "O=C(Nc1ccccc1)c1ccccc1OS(=O)(=O)c1ccccc1", "Potency": "inconclusive [inhibitor, full curve, poor fit]"}
{"smiles": "Cc1ccc(NC(=O)C(C)c2ccc([N+](=O)[O-])cc2)cc1Cl", "note": "(stereo not drawn)", "Potency": "inconclusive [inhibitor, partial curve, poor fit]"}
{"smiles": "O=C(OCC(=O)N1CCN(C(=O)c2ccco2)CC1)c1cc(S(=O)(=O)Nc2ccc(Cl)cc2)ccc1O", "activity change, negative = inhibition": "inconclusive: -3.94% [inhibitor]"}
{"smiles": "COc1ccc(S(=O)(=O)N2CCOCC2)cc1NC(=O)c1cccc(-n2cccc2)c1", "Potency": "inconclusive [inhibitor, partial curve]"}
{"smiles": "COCCN(C(=S)Nc1ccc(C)cc1)C(C)c1cccnc1", "note": "(stereo not drawn)", "Potency": "inconclusive [inhibitor, partial curve]"}
{"smiles": "Cc1cc(C)c(CN2CCC(n3nccc3NC(=O)c3ccccc3Cl)CC2)cc1C", "Potency": "inactive"}
{"smiles": "CCC(C)N(C(=O)COC(=O)/C=C/c1ccc(O)c(OC)c1)C1CCS(=O)(=O)C1", "note": "(stereo not drawn)", "Potency": "inconclusive [inhibitor, partial curve, poor fit]"}
{"smiles": "Cc1ccc(-c2c3c([nH]c(=S)c2C#N)CCCC3)o1", "Potency": "inconclusive [inhibitor, single point]"}
{"smiles": "Cc1csc(NC(=O)CSCC(=O)O)c1-c1nc2ccccc2s1", "Potency": "inconclusive [inhibitor, partial curve]"}
{"smiles": "COCCn1c(N)c(N(Cc2ccccc2)C(=O)c2ccc(N3CCCC3=O)cc2)c(=O)[nH]c1=O", "Potency": "inconclusive [inhibitor, full curve, poor fit]"}
{"smiles": "O=C(C1CCCCC1)N1C[C@@H](O)[C@H](n2cc(C3CC3)nn2)C[C@@H]1c1ccc(Cl)cc1", "Potency": "inactive"}
{"smiles": "Cc1ccc(NC(=O)COc2ccc(/C=N\\NC(=O)c3cccnc3)cc2)cc1C", "Potency": "inconclusive [inhibitor, full curve]"}
{"smiles": "COc1ccc(S(=O)(=O)NNc2nc(C)cc(C)n2)cc1Br", "Potency": "inactive"}
{"smiles": "CS(=O)(=O)NCCSCc1ccccc1", "Potency": "inactive"}
{"smiles": "CN(C)CCNc1ncnc2c1ncn2[C@H]1CN(Cc2ccc(F)cc2)C[C@@H](CO)O1", "Potency": "inconclusive [inhibitor, single point]"}
{"smiles": "COc1ccc(C)cc1NC(=O)Nc1ccncc1", "Potency": "inconclusive [inhibitor, single point]"}
{"smiles": "O=[N+]([O-])c1cccc(/C([O-])=C(/C(=S)Nc2cccc3ccccc23)[n+]2ccccc2)c1", "Potency": "inactive"}
{"smiles": "O=C(Nc1cccc(Cl)c1)Nc1ccccc1C(=O)O", "Potency": "inconclusive [inhibitor, single point]"}
{"smiles": "Cc1cc(C)cc(NC(=O)Cc2ccc(S(=O)(=O)N3CCCC3)s2)c1", "activity change, negative = inhibition": "inconclusive: -17.2% [inhibitor]"}
{"smiles": "C/C(=N\\Nc1ccc(S(N)(=O)=O)cc1[N+](=O)[O-])c1ccccc1O", "Potency": "inconclusive [inhibitor, full curve, poor fit]"}
{"smiles": "CCCCNC(=O)C1CCN(Cc2ccc(OCc3ccccc3)c(OC)c2)CC1", "Potency": "inconclusive [inhibitor, full curve]"}
{"smiles": "Cn1c(N)c(C(=O)COC(=O)/C=C/c2ccc(F)cc2)c(=O)n(C)c1=O", "Potency": "inconclusive [inhibitor, single point]"}
{"smiles": "CCCNC(=O)c1ccccc1NC(=O)COc1ccc(OC)cc1", "Potency": "inconclusive [inhibitor, full curve, poor fit]"}
{"smiles": "Cc1cccnc1CCNC(=O)CC1C(=O)NCCN1CC1CCCCC1", "note": "(stereo not drawn)", "Potency": "inconclusive [inhibitor, single point]"}
{"smiles": "COc1ccccc1CC(=O)N1CCC(n2nccc2NC(=O)C2CCOC2)CC1", "note": "(stereo not drawn)", "Potency": "inconclusive [inhibitor, partial curve, poor fit]"}
{"smiles": "O=c1c(O)c(-c2cccs2)oc2ccc(Cl)cc12", "Potency": "inactive"}
{"smiles": "Cc1cccc(Nc2nc(-c3ccccc3)c(C(=O)Nc3cccnc3)s2)c1", "Potency": "inconclusive [inhibitor, single point]"}
{"smiles": "COc1cccc(OC)c1-c1nn2c(-c3cc(-c4ccccc4)n[nH]3)nnc2s1", "Potency": "active: 39.8 µM"}
{"smiles": "Cc1ccc(CN2CCc3[nH]c(=S)[nH]c(=O)c3C2)cc1", "Potency": "inactive"}
{"smiles": "N/C(=N\\OC(=O)C(c1ccccc1)c1ccccc1)c1ccncc1", "Potency": "inconclusive [inhibitor, single point]"}
{"smiles": "CCOC(=O)C1CCN(Cc2cc(C(C)(C)C)c(O)c(C(C)(C)C)c2)CC1", "Potency": "inconclusive [inhibitor, single point]"}
{"smiles": "O=C(Nc1nonc1-c1ccc(F)cc1)c1ccco1", "Potency": "inconclusive [inhibitor, full curve, poor fit]"}
{"smiles": "C/C(=N\\NC(=O)c1cc2ccccc2cc1O)c1cccs1", "Potency": "inconclusive [inhibitor, partial curve]"}
{"smiles": "O=C(CCn1c(=O)oc2ccccc21)Nc1ccccc1", "Potency": "inconclusive [inhibitor, single point]"}
{"smiles": "CC(C)C/C(O)=C/c1nc2cc(Cl)ccc2oc1=O", "Potency": "inactive"}
{"smiles": "Cc1ccc(-c2cc(C(=O)N3CC(C)CC(C)C3)c3ccccc3n2)o1", "note": "(stereo not drawn)", "Potency": "inconclusive [inhibitor, single point]"}
{"smiles": "C/C(=C\\C(=O)c1ccc(Br)cc1)NCc1ccc2c(c1)OCO2", "Potency": "inactive"}
{"smiles": "Cc1nnc(NC(=O)c2nc(S(=O)(=O)Cc3ccccc3C)ncc2Cl)s1", "Potency": "inactive"}
{"smiles": "C/C(=N/NC(=O)CNC(=O)c1cccnc1)c1ccc(Cl)c(Cl)c1", "Potency": "inactive"}
{"smiles": "OCC1(Cc2ccc(Cl)cc2)CCN(Cc2ccccc2F)CC1", "Potency": "inactive"}
{"smiles": "CCN(CC(=O)Nc1cc(Cl)ccc1C)C(=O)Cc1sc(C)nc1-c1ccc(F)cc1", "Potency": "inconclusive [inhibitor, partial curve, poor fit]"}
{"smiles": "COCCNC(=O)Nc1ccc2nc(-c3ccco3)c(-c3ccco3)nc2c1", "Potency": "inconclusive [inhibitor, partial curve]"}
{"smiles": "COc1cc(Cl)ccc1OCc1cc(C(=O)NCCCN2CCCC2=O)no1", "Potency": "inconclusive [inhibitor, single point]"}
{"smiles": "CCc1ccc([C@H]2C(C(=O)O)=C[C@@H](C(C)(C)C)N2S(=O)(=O)c2ccc(C)cc2)cc1", "Potency": "inconclusive [inhibitor, single point]"}
{"smiles": "CC(C)(C)OC(=O)N1CCC[C@H]1c1nnc(SCc2ccc(Cl)cc2Cl)o1", "Potency": "inconclusive [inhibitor, partial curve]"}
{"smiles": "CCCOc1ccc(-c2c(C(=O)N/N=C/c3ccc(OC)cc3)nnn2-c2nonc2N)cc1", "Potency": "inconclusive [inhibitor, single point]"}
{"smiles": "Cc1nnsc1SCCNC(=O)Nc1ccc(Cl)cc1", "Potency": "inconclusive [inhibitor, single point]"}
